Some of the results follow. At the low end of the ranking the order means little. Measured with an extract: partners may take part in the binding.
Biological target: T1, HNF4alpha8 (COS-7 nuclear extract) (UniProt P41235-5)
T1 sequence: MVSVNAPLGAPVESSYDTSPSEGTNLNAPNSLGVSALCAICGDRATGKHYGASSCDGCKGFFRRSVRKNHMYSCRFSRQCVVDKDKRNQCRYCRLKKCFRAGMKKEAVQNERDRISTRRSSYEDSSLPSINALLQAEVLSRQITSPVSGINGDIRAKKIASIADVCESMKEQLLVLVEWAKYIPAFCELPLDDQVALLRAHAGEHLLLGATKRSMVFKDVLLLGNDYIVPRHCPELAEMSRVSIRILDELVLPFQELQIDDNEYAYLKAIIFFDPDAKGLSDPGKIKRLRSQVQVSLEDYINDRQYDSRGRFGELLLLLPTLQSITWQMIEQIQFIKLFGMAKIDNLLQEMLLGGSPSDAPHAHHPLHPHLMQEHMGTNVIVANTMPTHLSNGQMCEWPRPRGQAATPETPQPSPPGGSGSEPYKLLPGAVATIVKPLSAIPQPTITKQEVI
Test: protein-binding microarray
Settings: COS-7 nuclear extract on double-stranded Agilent 4x180k PBM; binding buffer, salt, pH and temperature not given; high values mean tight binding; double strand, one strand shown; sequences stand for … in …GCCTAGGGAGATTAGAGTATCGGTCGA

Sequence | binding signal (log2 normalized intensity)
ATGAAGCAAGAGTCCAAATTCCTAGCCCTC | 2.14
CGGGTCAGCAGGGCACCGCCTCCACACCCC | 2.22
GAAACGTTTGAATTCTTGCCTATCCCATAG | -1.26
GTGGCTACCTGTGCAGATATTTAACCTTTG | 4.61
TTATGTACCACCGTATTCCTAGCTCCTAGC | -1.11
GGCAACAGTTTTCTGGGATGCCCAAGGAAT | -1.29
CACCTGATTCAATGTCTGGAAGTTCTTCCT | 0.261
CTGCAGTTCAAAGGCAATATCACTTGTTTG | 0.442
ATTCTTTGCCATGACCTTTGAAGCCCAGAA | 5.57
CATTGATCTAACAGGAGGTGGAGCTCAGGA | 0.215
TTCAGGGCAGAAGAGGTTATCACAGGCTTG | -1
GTGAGAAGAGAAACACATGCAATCACACTA | -1.21
CCAAAACTCTCTCTCTGTGTCACATACACC | -0.848
GGTCACACTGCACCTGCCTGAACAAGTCCA | -1.26
TGCTGGGCTGCATTCCCAGATGGTTAGGTA | -0.562
AACCTGACTGCGCTCCCAGAAGCCTCCGGT | -1.3
GTCACCATAAAACATTCTATTCTATCTGTA | 0.384
TGAGATAAAAAGAAGCTTGGTATGTCTGAT | 0.371
TAATTAACTTGTGTTCAGAGCTTGCTGCAT | -0.87
CTTATCTCAAGAATTGTCTAACCGCAGCAA | -1.34
GTCAAACTTTGGACCCACTGCAGGATTGGA | 4.17
CTATTCTCTAAACTCTGGGCTCTATTTGGA | 0.51
CTTCACTTGTAGGAGACCTTGAGGATAAGT | 0.986

Sequence | binding signal (log2 normalized intensity)
GTACTCCTCACTGTTGTGACATACTGCCTT | 0.84
CTCTGCCTGCGTCTTATATAAGCTATTACT | -1.19
CTCCGCCCCATTGTCTTAGGCCTCGGGAGT | 1.3
GTTATCCTTGTTCTATGTTCACATCTCCTC | 1.3
ATGATAACCCAGTGCAATGCCTAAACCAGG | -1.34
TATCAGCCTGTGACAAAGTCCATCTGGGCA | 4.03
TGATAGCCTTTTACCTTGGCAGCCACTGAG | -1.14
GCCGCCGCCGTGGGAGAGGCCGCCCCCTGC | 4.39
CCCAGAAACACTGAACCTTGTCCCACTCTT | 2.32
GTCCAGGAGTGCAAAGCTGCTATGAGCTAT | -1.26
CTTCCAGCCATTTTGTGAGCTCTGATGGCG | -1.2
AAAACAGGTAGAGAGCTGTCTGCTGAGGAT | -1.3
GCCAGAGTTCCTGTGCAAGCCCCTGACCAA | 1.67
TTCAGAAGGTAGGTAAGGGGGAATGCCAAC | -1.31
GCATAGATGTTTAGCTATCAGTGTTGACCT | 4.65
ACATTCCTAAAAGCTTTCTTGGGCAAGAAA | -1.36
CGCCCCGCCTTCGCGCCCGTTTTCGTTTGC | 1.97
GCCATACGTCTAGAGCTGTCCAGCAGACAA | -1.33
GTGACCTTGAGCACTAAAGAGGCTACCAGA | -1.22
AGACTGGTTTGCACAGGTTACACAGTATGT | -0.754
AGGCCAGCTGTCTGGTTTGACCTTAAGTCA | 5.5
TATGTGGTGGAATGGAAAGAATATGAACTT | 1.88
AAGTAACAAGAGGCAAAGGCCACAGCTCAG | -1.32

Source: PMC10726135
